From the supplement of paper PMC10037445
“And” between values parts separate entries of the source, which are not always exact repeats. Identical values can stand only once. Whole data set: some 2,900 compounds, median “IRF Lucia reporter activity, fold change vs agonist alone” near 0.9, cut for the highest 2% near 2.8. Some of the results follow.

How the values were obtained:
[1] = test system: RAW-Dual; experiment: IRF Lucia reporter activity, fold change vs agonist alone; cytotoxicity flag (confluency mask): not cytotoxic; higher = enhanced IRF activity
How it was run: (§1)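 Library stock was pin-tooled at 50 nL into 384-well plates of RAW-Dual macrophages (50,000 cells/well, DMEM), followed 1 h later by a PRR agonist, and the cells were kept at 37 °C, 5% CO2. Supernatant collected after 20 hours was read for IRF by QuantiLuc luminescence and for NF-κB by QuantiBlue absorbance at 620 nm. Reporter activity is fold change over agonist-alone wells, and a well counted as cytotoxic when its IncuCyte confluency was below 70% of agonist controls in both mask sets.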

[2] = test system: RAW-Dual; experiment: IRF Lucia reporter activity, fold change vs agonist alone; higher = enhanced IRF activity; settings: agonist: MPLA (TLR4) […]
How it was run: as §1

[3] = test system: RAW-Dual; experiment: IRF Lucia reporter activity, fold change vs agonist alone; cytotoxicity flag (confluency mask): cytotoxic (confluency <70% of control); higher = enhanced IRF activity
How it was run: as §1

[4] = agonist: 3'3'-cGAMP (STING) 10 ug/mL
[5] = library stock concentration (final ~1000-fold dilution): 10 mM, cytotoxicity flag (confluency mask): not cytotoxic

## CCCc1cc(C)[nH]c(=O)c1CNC(=O)c1cc(-c2ccnc(N3CCN(C)CC3)c2)cc2c1cnn2C(C)C (library stock concentration (final ~1000-fold dilution): 2 mM)
[1]; [4]
  IRF Lucia reporter activity: 1
[1]; agonist: LPS (TLR4) 0.1 ug/mL
  IRF Lucia reporter activity: 0.994

## CCCc1cc(C)[nH]c(=O)c1CNC(=O)c1cc(-c2ccnc(N3CCN(C)CC3)c2)cc2c1cnn2C(C)C
[2]; library stock concentration (final ~1000-fold dilution): 2 mM, cytotoxicity flag (confluency mask): not cytotoxic
  IRF Lucia reporter activity: 1.54

## Cc1c(C(=O)Nc2ccc(N3CC(C)OC(C)C3)nc2)cccc1-c1ccc(OC(F)(F)F)cc1 (stereo not drawn)
[2]; [5]
  IRF Lucia reporter activity: 1.51

## Cc1c(C(=O)Nc2ccc(N3CC(C)OC(C)C3)nc2)cccc1-c1ccc(OC(F)(F)F)cc1 (stereo not drawn) (library stock concentration (final ~1000-fold dilution): 10 mM)
[1]; [4]
  IRF Lucia reporter activity: 0.587
[1]; agonist: LPS (TLR4) 0.1 ug/mL
  IRF Lucia reporter activity: 0.873

## CNC(C)C(=O)NC(C(=O)N1CCCC1C(=O)NC1c2ccccc2CC1OCC#CC#CCOC1Cc2ccccc2C1NC(=O)C1CCCN1C(=O)C(NC(=O)C(C)NC)C1CCCCC1)C1CCCCC1 (stereo not drawn) (library stock concentration (final ~1000-fold dilution): 10 mM water)
[3]; [4]
  IRF Lucia reporter activity: 0.647
[3]; agonist: LPS (TLR4) 0.1 ug/mL
  IRF Lucia reporter activity: 0.243

## CNC(C)C(=O)NC(C(=O)N1CCCC1C(=O)NC1c2ccccc2CC1OCC#CC#CCOC1Cc2ccccc2C1NC(=O)C1CCCN1C(=O)C(NC(=O)C(C)NC)C1CCCCC1)C1CCCCC1 (stereo not drawn)
[2]; library stock concentration (final ~1000-fold dilution): 10 mM water, cytotoxicity flag (confluency mask): cytotoxic (confluency <70% of control)
  IRF Lucia reporter activity: 1.09

## Cn1c(=O)c2c(ncn2CC2OCCO2)n(C)c1=O (library stock concentration (final ~1000-fold dilution): 10 mM)
[1]; [4]
  IRF Lucia reporter activity: 1.07
[1]; agonist: LPS (TLR4) 0.1 ug/mL
  IRF Lucia reporter activity: 1.08

## Cn1c(=O)c2c(ncn2CC2OCCO2)n(C)c1=O
[2]; [5]
  IRF Lucia reporter activity: 1.19

## CC(C)(C)NCC(O)COc1ccccc1C1CCCC1.CC(C)(C)NCC(O)COc1ccccc1C1CCCC1.O=S(=O)(O)O (stereo not drawn) (library stock concentration (final ~1000-fold dilution): 10 mM)
[1]; [4]
  IRF Lucia reporter activity: 0.74
[1]; agonist: LPS (TLR4) 0.1 ug/mL
  IRF Lucia reporter activity: 1.6

## CCCCCCCCCCCCCCOC1C(OC)OC(CN)C(O)C1OCCCCCCCCCCCCCC (stereo not drawn) (library stock concentration (final ~1000-fold dilution): 1 mM)
[1]; [4]
  IRF Lucia reporter activity: 1.06
[1]; agonist: LPS (TLR4) 0.1 ug/mL
  IRF Lucia reporter activity: 0.996

## CN(C)C(=O)CCSC(SCCC(=O)O)c1cccc(C=Cc2ccc3ccc(Cl)cc3n2)c1 (stereo not drawn) (library stock concentration (final ~1000-fold dilution): 10 mM)
[1]; [4]
  IRF Lucia reporter activity: 1.1
[1]; agonist: LPS (TLR4) 0.1 ug/mL
  IRF Lucia reporter activity: 1.28

## O=C(OCC1OC(OC(=O)c2cc(O)c(O)c(OC(=O)c3cc(O)c(O)c(O)c3)c2)C(OC(=O)c2cc(O)c(O)c(OC(=O)c3cc(O)c(O)c(O)c3)c2)C(OC(=O)c2cc(O)c(O)c(OC(=O)c3cc(O)c(O)c(O)c3)c2)C1OC(=O)c1cc(O)c(O)c(OC(=O)c2cc(O)c(O)c(O)c2)c1)c1cc(O)c(O)c(OC(=O)c2cc(O)c(O)c(O)c2)c1 (stereo not drawn) (library stock concentration (final ~1000-fold dilution): 10 mM)
[1]; [4]
  IRF Lucia reporter activity: 0.399
[1]; agonist: LPS (TLR4) 0.1 ug/mL
  IRF Lucia reporter activity: 2.01

## O=C(OCC1OC(OC(=O)c2cc(O)c(O)c(OC(=O)c3cc(O)c(O)c(O)c3)c2)C(OC(=O)c2cc(O)c(O)c(OC(=O)c3cc(O)c(O)c(O)c3)c2)C(OC(=O)c2cc(O)c(O)c(OC(=O)c3cc(O)c(O)c(O)c3)c2)C1OC(=O)c1cc(O)c(O)c(OC(=O)c2cc(O)c(O)c(O)c2)c1)c1cc(O)c(O)c(OC(=O)c2cc(O)c(O)c(O)c2)c1 (stereo not drawn)
[2]; [5]
  IRF Lucia reporter activity: 1.78

## COc1ccc(Oc2cc(C)c(-c3csc(NC(=O)c4ccncc4)n3)c(C)c2)cc1 (library stock concentration (final ~1000-fold dilution): 10 mM)
[1]; [4]
  IRF Lucia reporter activity: 0.879
[1]; agonist: LPS (TLR4) 0.1 ug/mL
  IRF Lucia reporter activity: 1.23

## COc1ccc(Oc2cc(C)c(-c3csc(NC(=O)c4ccncc4)n3)c(C)c2)cc1
[2]; [5]
  IRF Lucia reporter activity: 1.44

## COCC(=O)NC/C=C/c1ccc2ncnc(Nc3ccc(Oc4ccc(C)nc4)c(C)c3)c2c1 (library stock concentration (final ~1000-fold dilution): 10 mM)
[1]; [4]
  IRF Lucia reporter activity: 0.697
[1]; agonist: LPS (TLR4) 0.1 ug/mL
  IRF Lucia reporter activity: 1.01

## COCC(=O)NC/C=C/c1ccc2ncnc(Nc3ccc(Oc4ccc(C)nc4)c(C)c3)c2c1
[2]; [5]
  IRF Lucia reporter activity: 0.82

## CC(C)NCC(O)COc1ccc(CC(N)=O)cc1 (stereo not drawn)
[2]; [5]
  IRF Lucia reporter activity: 1

## CC(C)NCC(O)COc1ccc(CC(N)=O)cc1 (stereo not drawn) (library stock concentration (final ~1000-fold dilution): 10 mM)
[1]; [4]
  IRF Lucia reporter activity: 0.976
[1]; agonist: LPS (TLR4) 0.1 ug/mL
  IRF Lucia reporter activity: 1.23

## CCCCNc1ncc(C(=O)NCc2ccc(-n3ccnc3)cc2)c(NC2CCC(O)CC2)n1 (stereo not drawn) (library stock concentration (final ~1000-fold dilution): 10 mM)
[1]; [4]
  IRF Lucia reporter activity: 0.0128
[1]; agonist: LPS (TLR4) 0.1 ug/mL
  IRF Lucia reporter activity: 0.0441

## CCCCNc1ncc(C(=O)NCc2ccc(-n3ccnc3)cc2)c(NC2CCC(O)CC2)n1 (stereo not drawn)
[2]; [5]
  IRF Lucia reporter activity: 0.0212

## NC(CC(=O)N1CCn2c(nnc2C(F)(F)F)C1)Cc1cc(F)c(F)cc1F (stereo not drawn) (library stock concentration (final ~1000-fold dilution): 10 mM)
[1]; [4]
  IRF Lucia reporter activity: 0.983 and 1.04
[1]; agonist: LPS (TLR4) 0.1 ug/mL
  IRF Lucia reporter activity: 1.07 and 1.26

## O=C(/C=C/c1ccc(O)c(O)c1)O[C@@H]1C[C@@](O)(C(=O)O)C[C@@H](O)[C@@H]1O (library stock concentration (final ~1000-fold dilution): 10 mM)
[1]; [4]
  IRF Lucia reporter activity: 1.02
[1]; agonist: LPS (TLR4) 0.1 ug/mL
  IRF Lucia reporter activity: 1.23

## C=CC(=O)Nc1cccc(Sc2nc(Nc3ccc(N4CCN(C)CC4)cc3)ncc2Cl)c1
[2]; [5]
  IRF Lucia reporter activity: 0.0982
